Data taken from PubChem BioAssay (NCATS).
Several values for one entry are separate records, joined by “and”; a condition that tells them apart may be missing. Equal entries are not always repeated. This list was built around the results that the source calls inconclusive (neither active nor inactive); the mix of calls is not that of the screen. Where the call is inconclusive, the potency comes from a doubtful curve fit. Activity calls are given as the source filed them. The call rests on the fitted dose curve; in most records, active means well fitted curve in the direction sought with a large enough effect; inconclusive means small, poorly fitted or top-dose-only effect, or another doubt; inactive means no such curve, though single readings can be large; an effect the other way counts as inactive or inconclusive.

Columns and labels:
[1] = Viability qHTS for spleen associated tyrosine kinase inhibitor (SYKi) naive MV4-11 cells (AID 1963823); conditions: MV4-11 AML viability, CellTiter-Glo luminescence, 72 h; viability (% of control): at 45 µM (top of the series); further: nearly all actives have a fitted effect of over 40% in size
Outline: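 qHTS, SYK inhibitor-naive MV4-11; 500 cells/well; 72 hr compound exposure, 37 C; CellTiter-Glo added, 10 min RT; luminescence read.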

[2] = Viability qHTS for spleen associated tyrosine kinase inhibitor (SYKi) drug resistant MV4-11 cells (AID 1963824); further: nearly all actives have a fitted effect of over 35% in size
Outline: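 SYK inhibitor-resistant MV4-11 AML cells, 500 per well, added to predispensed compounds and incubated 72 hr at 37 C, 5% CO2. Viability measured by CellTiter-Glo luminescence after 10 min at room temperature.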

[3] = Cellular viability qHTS for adrenocortical cancer (ACC) cell line NCI-H295R (AID 1963990); conditions: CellTiter-Glo ATP luminescence, 48 h; activity change, negative = viability loss: at 46.1 µM (top of the series); further: nearly all actives have a fitted effect of over 60% in size;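 on activity change, negative = viability loss: 0% = DMSO only wells and -100% = full killing with cytotoxic reference compound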
Outline: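 Compound titrations (up to 46 uM final) are applied to NCI-H295R cultures for 48 h at 37C. Viable cell number is estimated by CellTiter-Glo signal, normalised to DMSO and doxorubicin controls.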
Potency means the concentration at half of the fitted maximal effect; tags describe the fitted curve by direction and shape.

| SMILES | Potency [1] | Potency [2] | Potency [3] | viability (% of control) [1] | viability, % of control [2] | activity change, negative = viability loss [3] |
| --- | --- | --- | --- | --- | --- | --- |
| CNC[C@H](O)c1cccc(O)c1 | inconclusive: 5.9 µM [cytotoxic, partial curve, poor fit] | inconclusive: 3.35 µM [cytotoxic, full curve, poor fit] | inconclusive: 1.16 µM [cytotoxic, full curve] |  |  |  |
| N[C@@H](CSSC[C@H](N)C(=O)O)C(=O)O |  |  |  | inactive: 68.4% [at 0.588 µM] | inactive: 76.8% [at 0.588 µM] | inactive: -0.603% [at 0.587 µM] |
| CN(C)CCCOC1(Cc2ccccc2)CCCCCC1 | inactive | inactive | inconclusive: 0.461 µM [cytotoxic, full curve, poor fit] |  |  |  |
| CC1(N)CCN(c2cnc(-c3cccc(Cl)c3Cl)c(N)n2)CC1 | inconclusive: 5.74 µM [cytotoxic, partial curve] | inconclusive: 8.11 µM [cytotoxic, partial curve] | inactive |  |  |  |
| Cc1cccc(C)c1NC(=O)c1ccccc1C(=O)O | inactive | inactive | inactive |  |  |  |
| C/C=C/C(=O)N(CC)c1ccccc1C | inactive | inconclusive: 20.9 µM [cytotoxic, partial curve, poor fit] | inconclusive: 2.31 µM [cytotoxic, partial curve, poor fit] |  |  |  |
| CC(=O)NS(=O)(=O)c1ccc(N)cc1 | inconclusive: 0.335 µM [cytotoxic, full curve, poor fit] | inactive | inconclusive: 6.51 µM [cytotoxic, full curve] |  |  |  |
| CC(C)C(=O)OCC(=O)[C@@]12O[C@H](C3CCCCC3)O[C@@H]1C[C@H]1[C@@H]3CCC4=CC(=O)C=C[C@]4(C)[C@H]3[C@@H](O)C[C@@]12C | active: 5.9 µM | active: 2.95 µM | inconclusive: 11.2 µM [cytotoxic, single point] |  |  |  |
| CCCCCC(C)N (configuration not stated) | inconclusive: 0.0033 µM [rising, full curve, poor fit] | inactive | inactive |  |  |  |
| NC(=O)N[C@@H](CCC(=O)O)C(=O)O | inconclusive: 2.99 µM [cytotoxic, full curve] | inconclusive: 3.35 µM [cytotoxic, full curve] | inactive |  |  |  |
| CC(C(=O)O)c1ccc(C(=O)c2ccccc2)s1 (configuration not stated) | inactive | inactive | inactive |  |  |  |
| O=C(O)COC(=O)Cc1ccccc1Nc1c(Cl)cccc1Cl | inactive | inactive | inactive |  |  |  |
| O=P(O)(O)OCC(O)CO (configuration not stated) | inactive | inactive | inconclusive: 4.11 µM [cytotoxic, partial curve, poor fit] |  |  |  |
| Cc1c(F)cccc1NC(=O)Nc1ccc(Cl)c(S(=O)(=O)[C@H]2CCCNC2)c1O | inactive | inconclusive: 23.5 µM [cytotoxic, single point] | inactive |  |  |  |
| CCC(=O)c1ccc2c(c1)N(CCCN(C)C)c1ccccc1S2 | inconclusive: 18.8 µM [cytotoxic, partial curve] | active: 21.1 µM | active: 14.6 µM |  |  |  |
| O=C(Nc1ccccc1)Nc1ccc(-c2ccc(C(=O)[C@@H]3CCC[C@H]3C(=O)O)cc2)cc1 | inconclusive: 29.5 µM [cytotoxic, partial curve, poor fit] | inconclusive: 11.8 µM [cytotoxic, partial curve, poor fit] | inactive |  |  |  |
| CN[C@@H](C)C(=O)N[C@@H]1C(=O)N(Cc2c(C)ccc3ccccc23)c2ccc(C#N)cc2N(C(C)=O)[C@H]1C | inconclusive: 23.5 µM [cytotoxic, single point] | active: 13.2 µM | inconclusive: 28.2 µM [cytotoxic, single point] |  |  |  |
| CCC(C)CNCC(=O)N1CCc2sccc2C1c1cccc(C)n1 (configuration not stated) | inconclusive: 14.8 µM [cytotoxic, partial curve] | inconclusive: 18.6 µM [cytotoxic, partial curve, poor fit] | inactive |  |  |  |
| CN(C)CCNC(=O)COc1c2cccc1Cc1cccc(c1OCC(=O)NCCN(C)C)Cc1cccc(c1OCC(=O)NCCN(C)C)Cc1cccc(c1OCC(=O)NCCN(C)C)C2 | inconclusive: 0.0855 µM [cytotoxic, full curve] | inconclusive: 0.191 µM [cytotoxic, full curve] |  |  |  | inactive: 4.99% [at 9.17 µM] |
| CC(C)n1ncnc1-c1cn2c(n1)-c1ccc(O[C@@H](C)C(N)=O)cc1OCC2 | inconclusive: 1.32 µM [cytotoxic, full curve] | active: 4.68 µM | active: 0.631 µM |  |  |  |

| SMILES | Potency [1] | Potency [2] | Potency [3] | viability (% of control) [1] | viability, % of control [2] | activity change, negative = viability loss [3] |
| --- | --- | --- | --- | --- | --- | --- |
| COCc1c(-c2ccc(NC(=O)Nc3cc(C(F)(F)F)ccc3F)c(F)c2)c2c(N)ncnn2c1CN1CCOCC1 | active: 0.0105 µM | active: 0.0164 µM | inactive |  |  |  |
| COCCN1CCN(Cc2ccc(-c3n[nH]c4c3C(=O)c3c(NC(=O)NN5CCOCC5)cccc3-4)cc2)CC1 | inconclusive: 9.2 nM [cytotoxic, full curve] and inconclusive: 11.8 nM [cytotoxic, full curve] | inconclusive: 10.3 nM [cytotoxic, full curve] and active: 20.9 nM | active: 0.891 µM |  |  |  |
| COc1cc(C)c(/C=C/C(C)=C/C=C/C(C)=C/C(=O)O)c(C)c1C | active: 2.35 µM | active: 4.68 µM | inconclusive: 14.1 µM [cytotoxic, partial curve, poor fit] |  |  |  |
| CC1(C)O[C@@H]2C[C@H]3[C@@H]4CCC5=CC(=O)C=C[C@]5(C)[C@H]4[C@@H](O)C[C@]3(C)[C@]2(C(=O)CO)O1 | inactive | inconclusive: 26.3 µM [cytotoxic, single point] | inactive |  |  |  |
| NC(=O)C(=O)N/N=C/c1ccc([N+](=O)[O-])o1 | inconclusive: 21.1 µM [cytotoxic, single point] | inconclusive: 16.8 µM [cytotoxic, single point] | inconclusive: 29.1 µM [cytotoxic, single point] |  |  |  |
| N[C@@H](CCC(=O)O)C(=O)N[C@@H](Cc1c[nH]c2ccccc12)C(=O)O | inconclusive: 20.9 µM [cytotoxic, partial curve] | inconclusive: 18.6 µM [cytotoxic, partial curve] | inactive |  |  |  |
| CN1CCN(CCCNc2ncc(Cl)c(-c3cc4c(C(=O)NC5CC5)cccc4s3)n2)CC1 | inconclusive: 16.6 µM [cytotoxic, partial curve] | active: 18.6 µM | inconclusive: 35.5 µM [cytotoxic, single point] |  |  |  |
| O=C(CN1CCN(Cc2ccc3c(c2)OCO3)CC1)N1c2ccccc2Sc2ccccc21 | inconclusive: 18.8 µM [cytotoxic, single point] | inconclusive: 23.7 µM [cytotoxic, single point] | inactive |  |  |  |
| O=C(O)COc1nn(Cc2ccccc2)c2ccccc12 | inactive | inactive | inactive |  |  |  |
| c1cc(-c2cnn3cc(-c4ccc(N5CCNCC5)cc4)cnc23)c2cccnc2c1 | active: 0.662 µM | active: 0.92 µM | active: 6.31 µM |  |  |  |
| O=C1NC(=O)/C(=C/c2ccc(-c3ccc(F)cc3O)o2)S1 | inconclusive: 14.8 µM [cytotoxic, partial curve] | inconclusive: 14.8 µM [cytotoxic, partial curve] | active: 25.1 µM |  |  |  |
| O=C(O)c1ccc(OCCCOc2ccc(C(=O)O)cc2)cc1 | inactive | inactive | inconclusive: 5.8 µM [cytotoxic, partial curve, poor fit] |  |  |  |
| Cc1cc(N)c2cc(NC(=O)Nc3ccc4nc(C)cc(N)c4c3)ccc2n1 | inconclusive: 21.1 µM [cytotoxic, partial curve] | inconclusive: 0.0067 µM [cytotoxic, full curve, poor fit] | inconclusive: 29.1 µM [cytotoxic, single point] |  |  |  |
| Cc1ccc(CCn2c3c(c4cc(Cl)ccc42)CN(C)CC3)cn1 | inconclusive: 29.9 µM [cytotoxic, single point] | inconclusive: 26.6 µM [cytotoxic, single point] | inconclusive: 25.9 µM [cytotoxic, single point] |  |  |  |
| C[C@H]1CC2[C@@H]3CCC4=CC(=O)C=C[C@]4(C)[C@@]3(F)[C@@H](O)C[C@]2(C)[C@@]1(O)C(=O)CO (some centres not stated) | inconclusive: 7.42 µM [cytotoxic, full curve, poor fit] | inconclusive: 16.6 µM [cytotoxic, partial curve] | inactive |  |  |  |
| CC(C)(C)NCC(O)COc1ccc(NC(=O)NC2CCCCC2)cc1 (configuration not stated) | inconclusive: 29.9 µM [cytotoxic, single point] | inconclusive: 33.5 µM [cytotoxic, single point] | inactive |  |  |  |
| CCc1cccc2c(CCO)c[nH]c12 | inactive | inactive | inactive |  |  |  |
| CCOC(=O)C(=O)CCc1ccccc1 | inconclusive: 11.9 µM [cytotoxic, partial curve, poor fit] | inconclusive: 3.35 µM [cytotoxic, full curve, poor fit] | inconclusive: 20.6 µM [cytotoxic, single point] |  |  |  |
| Cc1cc(O)c(-c2ccc([C@@H](C)CN)cc2)c2c1[nH]c(=O)c1sccc12 | inconclusive: 0.0295 µM [cytotoxic, full curve] | inconclusive: 0.0093 µM [cytotoxic, full curve] | inconclusive: 2.82 µM [cytotoxic, full curve] |  |  |  |
